These results are taken from PubChem BioAssay AID1159614 (National Center for Advancing Translational Sciences (NCATS), 2016).

The whole screen tested about 45,000 compounds, of which about 65 (0.1%) were called active. The call rests on the fitted dose curve; in most records, active means well fitted activation curve with a large enough effect; inconclusive means small, poorly fitted or top-dose-only effect; inactive means no such curve, though single readings can be large or run the other way. This is one part of the list.

Sequence of UniProt P54803 (P54803 whole entry, looked up): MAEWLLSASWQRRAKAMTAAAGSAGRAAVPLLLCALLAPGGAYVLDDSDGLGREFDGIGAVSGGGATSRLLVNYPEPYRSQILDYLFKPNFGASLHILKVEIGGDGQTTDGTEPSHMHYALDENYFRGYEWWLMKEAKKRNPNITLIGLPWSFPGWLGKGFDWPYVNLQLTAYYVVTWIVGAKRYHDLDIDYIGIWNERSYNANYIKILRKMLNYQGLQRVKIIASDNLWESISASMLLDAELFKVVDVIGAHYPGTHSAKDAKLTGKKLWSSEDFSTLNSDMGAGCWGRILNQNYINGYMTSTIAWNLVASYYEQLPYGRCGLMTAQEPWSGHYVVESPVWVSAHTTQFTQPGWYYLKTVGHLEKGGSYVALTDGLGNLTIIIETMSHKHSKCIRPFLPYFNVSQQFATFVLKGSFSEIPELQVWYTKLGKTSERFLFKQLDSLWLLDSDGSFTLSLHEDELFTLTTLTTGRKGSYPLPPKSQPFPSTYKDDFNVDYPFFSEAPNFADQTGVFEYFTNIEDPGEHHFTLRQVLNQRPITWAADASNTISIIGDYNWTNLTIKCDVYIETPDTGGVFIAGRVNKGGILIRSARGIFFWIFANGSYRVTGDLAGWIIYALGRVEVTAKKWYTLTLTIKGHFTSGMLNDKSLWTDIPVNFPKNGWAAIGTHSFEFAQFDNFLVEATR

The test deals with Galactocerebrosidase (Homo sapiens) (UniProt P54803). The experiment in a line: A Novel Cell-Based Assay to Identify Small Molecules for B -Galactocerebrosidase. Further: 0% is about no effect; nearly all actives have a fitted effect of over 65% in size. Particulars: 145M-Twi-hGALC-G270D cells (Twitcher mouse brain line with human GALC G270D), HMU-beta-Gal fluorescence, 48 h; series mostly up to 57.5 µM; activation: at the top concentration. The essentials:
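Live 145M-Twi cells (Twitcher mouse brain-derived, GALC-null) stably expressing human GALC-G270D, with a wild-type GALC line, were compound-treated. Residual GALC activity was then read as fluorescence from 0.1 mM final HMU-β-gal at pH 5.2; higher signal means activation.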
Take `COc1ccc(-c2nn(C)c3sc(C(=O)NCCN(C)C)cc23)cc1OC`: the “activation” value is inactive: -15.5%. Then `COc1ccc(CNC(=O)CN2N=C(c3ccc(Cl)cc3)CCC2=O)cc1`, with inactive: -12.3%; and `Cc1ccc(C2=Nc3ccccc3N=C(c3ccc(F)cc3)C2)c(O)c1`, with inactive: -11.7%; and `CCN(c1ccccc1C)S(=O)(=O)c1nnc(NC(=O)c2ccc(OC)c(OC)c2)s1`, with inactive: -13.3%. `O=C(NCCSc1c[nH]c2ccccc12)c1ccc(Cl)cc1`: the “activation” value is inactive: -14.8%. To `O=C(NCCc1ccccc1)c1ccc2c(c1)N(Cc1ccc(Cl)cc1)C(=O)c1ccccc1S2(=O)=O` belongs inactive: -8.67%; to `COc1ccc(Cn2c(SCc3ccc(C(=O)NCc4ccc(C)cc4)cc3)nc3cccnc32)cc1`, inactive: -7.17%. Then `Cc1ccc(N2CC(NC(=O)CCCc3ccccc3)CC2=O)cc1` (stereo not given), with inactive: -0.968%; and `O=C(Cn1nc(Cc2cccnc2)c2ccccc2c1=O)N1CCN(c2ccccc2F)CC1`, with inactive: -6.99%. To `Cc1ccc(Cl)cc1N1CCN(c2nc3ccc(C(=O)c4ccccc4)cc3n3cnnc23)CC1` belongs inactive: -7.11%; to `COc1ccc(CNC(=O)c2ccc(CN3C(=O)C(C)=C(c4ccc(C)cc4)S3(=O)=O)cc2)cc1`, inactive: -7.88%; to `CCc1nc(SC)ncc1C(=O)NCc1cccc(Br)c1`, inactive: -8.36%. Take `CC(=O)Nc1ccc(NS(=O)(=O)c2c(C(=O)N3CCCCCC3)c(C)n(C)c2C)cc1`: the “activation” value is inactive: -17%. To `Cc1ccccc1OCC(=O)Nc1ccc(S(=O)(=O)N(Cc2ccccc2)c2ccccc2)cc1` belongs inactive: -13%. To `COC(=O)c1ccc(NC(=O)c2cc(S(=O)(=O)N3CCOCC3)cn2C)cc1` belongs inactive: -11.3%. To `COc1ccc(CCNC(=O)CSc2cn(CCNC(=O)c3c(F)cccc3F)c3ccccc23)cc1OC` belongs inactive: -14.2%; to `CN(C)c1ccc(NC(=O)Cn2c(SCc3ccc(F)cc3)nc3ccncc32)cc1`, inactive: -0.265%; to `Cc1ccc(-n2ncc(C(=O)NCc3ccc4c(c3)OCO4)c2C2CCN(C(=O)OC(C)(C)C)CC2)c(C)c1`, inactive: 17.4%. For `Cc1oc2cc3oc(=O)c(CCC(=O)NCCc4ccccc4F)c(C)c3cc2c1C`, the “activation” value was inactive: 19%. To `Cc1ccc(OCCSc2nnc(-c3cccs3)o2)cc1` belongs inactive: -1.63%; to `COc1ccc(-c2nc3c(c(SCc4ccc(Br)cc4)n2)Cc2c(CO)cnc(C)c2O3)cc1`, inactive: -3.07%; to `Cc1ccc(C(=O)COC(=O)CCC(=O)Nc2ccc(Oc3ccccc3)cc2)cc1`, inactive: -10%.

With `COc1ccc(Cn2c(=O)c3oc4ccccc4c3n(CC(=O)Nc3c(C)cccc3C)c2=O)cc1`, the “activation” value is inactive: -14.4%. Then `Cc1ccc2c(c1)c1c(c(=O)n(-c3ccccc3)c(=O)n1Cc1ccccc1C)n2C`, with inactive: 9.63%; and `Cc1cc(C)cc(N(CC(=O)NCCc2ccc(Cl)cc2)S(=O)(=O)c2c(C)noc2C)c1`, with inactive: -18.1%.

Turning to `COc1ccc(NC(=O)Nc2nnc(N3CCCC3)s2)cc1`, the “activation” value was inactive: -2.4%. To `CN1CCN(C(=O)c2cnn(-c3ccc(F)cc3F)c2C2CCN(C(=O)OC(C)(C)C)CC2)CC1` belongs inactive: -7.84%.

For `CCC(=O)N1c2ccccc2CC1C(=O)NCc1ccc(CC)cc1` (stereo not given), the “activation” value was inactive: -15.3%.

As to `Cc1ccc2c(=O)cc(C(=O)N(Cc3ccc(C(C)(C)C)cc3)C3CCS(=O)(=O)C3)oc2c1` (stereo not given), the “activation” value is inactive: -15.4%. With `CC(=O)c1ccc(S(=O)(=O)NC(=O)NC2CCCCC2)cc1`, the “activation” value was inactive: -7.79%. Then `COc1ccc(Cn2ccc3nc(C)c(C(=O)NCc4ccc(SC)cc4)cc3c2=O)cc1`, with inactive: -17.7%; and `Cc1ccc(CNS(=O)(=O)c2cnc(N)nc2)cc1`, with inactive: -35.9%.

For `Cc1ccccc1NC(=O)Cn1nc(-c2ccccc2)nc(Cc2ccccc2)c1=O`, the “activation” value was inactive: -14.1%. As for `O=C(c1cc2c(Cl)nc3ccccc3c2s1)N1CCCCC1`, the “activation” value is inactive: 11.7%. In the case of `COc1ccc(CNC(=O)CSc2nnc(C)c3c(C)n(-c4ccccc4)nc23)c(OC)c1`, the “activation” value was inactive: -16.9%. Then `CCc1ccc2ncc3c(-c4ccc(C)cc4)nn(CC(=O)NCc4ccccc4)c3c2c1`, with inactive: -22.7%. To `CCOC(=O)c1sc2ncn(CC(=O)Nc3ccc(OC)c(Cl)c3)c(=O)c2c1C` belongs inactive: -8.76%; to `Cc1ccccc1Cn1c2ccccc2c2cnn(CC(=O)NC3CCCCCC3)c(=O)c21`, inactive: -14.6%; to `COc1ccc(Br)cc1Cn1nnc(C(=O)Nc2cccc(SC)c2)c1N`, inactive: -12.3%.

Take `CC(C)CCNC(=O)Cn1nc(N2CCN(c3ccccc3)CC2)ccc1=O`: the “activation” value was inactive: -10.8%. For the compound `COc1ccc(-c2nc3sc(CCNC(=O)C(=O)Nc4ccc(OC)c(OC)c4)c(C)n3n2)cc1`, the “activation” value is inactive: -2.84%. Then `O=C(CSc1nc2ccccc2n1Cc1cccc(F)c1)NCc1ccccc1`, with inactive: -1.62%; and `O=C(CC(c1cccs1)N1Cc2ccccc2C1=O)Nc1ccc(F)cc1` (stereo not given), with inactive: -2.95%. Take `CC(=O)c1cccc(NC(=O)CSc2ncc3c(n2)-c2cc(Cl)ccc2N(Cc2ccccc2)S3(=O)=O)c1`: the “activation” value is inactive: 1.84%.

As to `COc1cc(CNC(=O)c2cc3n(n2)CCCN(Cc2cccc(F)c2)C3=O)cc(OC)c1OC`, the “activation” value is inactive: -7.59%. To `CSc1cccc(NC(=O)c2cc3c(COC(C)=O)cnc(C)c3oc2=O)c1` belongs inactive: -12.8%; to `COc1ccc(S(=O)(=O)NCc2nc(-c3ccccc3)no2)cc1`, inactive: -3.68%. To `Cc1ccc(NC(=O)c2ccc(CN3CC(=O)N4CCCCC4C3=O)cc2)c(Cl)c1` (stereo not given) belongs inactive: -34.4%; to `COc1ccc(OC)c(C2C(C(=O)Nc3ccc(C)cc3)=C(C)Nc3nnnn32)c1` (stereo not given), inactive: -8.22%. For `CN1CCN(C(=O)c2ccc3c(c2)N(Cc2ccc(C(F)(F)F)cc2)C(=O)c2ccccc2S3)CC1`, the “activation” value was inactive: -18.4%. Then `CN(CC(=O)Nc1cccc(F)c1)S(=O)(=O)c1ccc2c(c1)n(C)c(=O)c(=O)n2C`, with inactive: -7.23%. Then `O=C(NCc1ccccc1F)C(=O)NCC(c1ccc2c(c1)OCO2)N1CCOCC1` (stereo not given), with inactive: -5.29%. To `Nc1ncn([C@@H]2O[C@H](CO)[C@@H](O)[C@H]2O)c(=O)n1` belongs inactive: -19.1%; to `Cc1ccc(-n2nc(C(=O)N3CCN(c4ccccc4F)CC3)c(=O)n(C)c2=O)cc1`, inactive: -13.1%; to `CCCCCc1ccc(-c2ccc(Br)cc2)nc1`, inactive: -13.7%. With `COc1ccc(CN(CCN(C)C)c2ccccn2)cc1`, the “activation” value was inactive: -7.51%. For `CC(=O)N1CCc2c(sc3c2c(=O)n(-c2ccccc2)c(=O)n3CC(=O)Nc2cc(C)cc(C)c2)C1`, the “activation” value was inactive: -5.26%.

Take `CCOc1ccc(CCNC(=O)c2c(C)oc3ncn(CC(C)C)c(=O)c23)cc1OCC`: the “activation” value is inactive: -4.62%. Then `CCCNC(C)C(=O)Nc1ccccc1C` (stereo not given), with inactive: -12.8%; and `CCc1ccc(NC(=O)CSc2nc(C)c(C(=O)Nc3ccccc3)c(-c3ccc(OC)c(OC)c3)c2C#N)cc1`, with inactive: -16.8%. To `Cc1cc(Br)ccc1NC(=O)CSc1c2c(nc3ccccc13)CCC2` belongs inactive: -4.86%. Then `COc1ccccc1N1CCN(c2ccc(=O)n(CC(=O)NCc3ccc(F)cc3)n2)CC1`, with inactive: 3.54%; and `COc1ccc(NC(=O)c2cc3cc(C)ccc3[nH]2)cc1`, with inactive: -28.2%; and `CCOc1ccccc1NC(=O)CSc1nc2c(oc3ccccc32)c(=O)n1-c1ccc(F)cc1`, with inactive: -15%. In the case of `COc1cccc(CSc2nc3n(n2)C(c2ccc(C(=O)O)cc2)C(C(=O)Nc2ccccc2)=C(C)N3)c1` (stereo not given), the “activation” value was inactive: -16.1%. Take `O=C(OCc1cc(=O)n2nc(-c3cccs3)sc2n1)c1ccccc1Cl`: the “activation” value was inactive: -12.7%. Then `CC(C)(C)C(=O)CSc1nc2ccsc2c(=O)n1Cc1ccccc1Cl`, with inactive: -11.3%; and `CSc1ccc(CCNC(=O)c2cc(C)nc3c2c(C)nn3-c2cccc(F)c2)cc1`, with inactive: -0.513%; and `Cc1c(C(=O)N2CCCCCC2)c(S(=O)(=O)NCc2ccccc2)c(C)n1C`, with inactive: -10.9%. `CSc1ccccc1-c1nnc(NC(=O)c2ccc3c(c2)OCCO3)o1`: the “activation” value was inactive: -11.2%.

Turning to `CC(CNC(=O)c1cnn(-c2ccc(F)cc2)c1-n1cccc1)c1ccccc1` (stereo not given), the “activation” value was inactive: -26.8%. To `Cc1ccc2nc(SCc3nc(-c4ccc(Cl)cc4)no3)[nH]c2c1` belongs inactive: -15.7%; to `CC(=O)Nc1ccccc1-c1nc2ccccc2n(CC(=O)Nc2cccc(C)c2C)c1=O`, inactive: 1.04%; to `O=C(CSc1nc(=O)n(CCN2CCOCC2)c2c1CCC2)Nc1ccc(Cl)c(Cl)c1`, inactive: -12.8%.

For the compound `O=C(Nc1ccc(F)c(Cl)c1)Nc1c[nH]c(=O)[nH]c1=O`, the “activation” value is inactive: -10.4%. Then `COc1ccc(C2CC(=O)N(Cc3ccc(C)cc3)c3c2c(C)nn3-c2nc(C)cc(C)n2)c(OC)c1` (stereo not given), with inactive: -14.1%.

As for `Cc1cccc2nc(-c3ccccn3)c(Nc3ccc(F)cc3)n12`, the “activation” value is inactive: -11.6%.

`Cc1cc2c(cc1S(=O)(=O)Nc1cccc(Cl)c1C)n(C)c(=O)c(=O)n2C`: the “activation” value is inactive: -4.78%. Then `Cc1cc(C)cc(N2C(=O)CSC23C(=O)N(Cc2c(F)cccc2Cl)c2ccccc23)c1` (stereo not given), with inactive: -14.9%; and `CCOC(=O)c1cc(-c2ccccc2)n(CCC(=O)Nc2ccccc2CC)c1C`, with inactive: -22.5%; and `COc1ccc(N2CCN(S(=O)(=O)c3ccc(-c4coc(C)n4)cc3)CC2)cc1`, with inactive: -16.5%. `CC(=O)N1c2ccc(S(=O)(=O)Nc3ccc(C)c(Cl)c3)cc2CC1C` (stereo not given): the “activation” value was inactive: 7.14%. Then `CCOc1ccc(CC(=O)Nc2c(C(=O)c3ccccc3)oc3ccc(Cl)cc23)cc1OCC`, with inactive: -14.1%; and `CCCCC(CC)CNC(=O)Cc1ccc(-n2c(=O)[nH]c3ccccc3c2=O)cc1` (stereo not given), with inactive: -7.87%; and `CCCCC12CN3CC(C)(CN(C1)C3c1c[nH]c3ccccc13)C2=O` (stereo not given), with inactive: -8.98%. To `Cc1cccc(CSc2nc3c([nH]c4ccccc43)c(=O)n2C)c1` belongs inactive: 10.6%; to `CNS(=O)(=O)c1cn(CC(=O)N2CCN(c3ccc(C(C)=O)cc3)CC2)cc1S(=O)(=O)NC`, inactive: -4.64%; to `Cc1ccc(NC(=O)C(CC(C)C)N2Cc3ccccc3C2=O)cc1F` (stereo not given), inactive: -13%. Then `CC1=C(C(=O)Nc2cccnc2)C(c2ccc(C)cc2)n2nc(SCc3ccccc3F)nc2N1` (stereo not given), with inactive: -12.8%; and `Cc1c(CCNC(=O)c2ccc(C(C)(C)C)cc2)sc2nc(-c3ccc(F)cc3)nn12`, with inactive: -13.1%; and `COc1cc2c(cc1OC)n(CC(=O)c1cc(C)ccc1C)c(=O)n1nc(CCn3nc(C)cc3C)nc21`, with inactive: -2.97%.

In the case of `CCc1cc2c(cc3c(=O)n(CCCC(=O)NCc4cccc(Br)c4)ncn32)s1`, the “activation” value was inactive: -11.9%.

`Cc1cc(Nc2ccc(F)cc2F)nc(-n2nc(C)cc2C)n1`: the “activation” value is inactive: -41%. Then `CCc1ccccc1S(=O)(=O)Cc1ccc(C(=O)NCCc2ccc(Cl)cc2)o1`, with inactive: -5.22%; and `O=C(Nc1cc(-c2cccc(Cl)c2)nn1-c1ccccc1)c1ccccc1F`, with inactive: -18.2%.
